PMC4336329 (PLoS ONE, 2015)
About 2,200 (0.71%) of roughly 310,000 compounds showed an effect of 50% or more. Effects have a minus sign here. The list shows a part of the results.

Target: human ether-à-go-go-related gene (hERG) potassium channel (human, UniProt Q12809)
Experiment: primary screen, population patch clamp on CHO cells stably expressing hERG

Chain of human ether-à-go-go-related gene (hERG) potassium channel (Q12809 whole entry, looked up): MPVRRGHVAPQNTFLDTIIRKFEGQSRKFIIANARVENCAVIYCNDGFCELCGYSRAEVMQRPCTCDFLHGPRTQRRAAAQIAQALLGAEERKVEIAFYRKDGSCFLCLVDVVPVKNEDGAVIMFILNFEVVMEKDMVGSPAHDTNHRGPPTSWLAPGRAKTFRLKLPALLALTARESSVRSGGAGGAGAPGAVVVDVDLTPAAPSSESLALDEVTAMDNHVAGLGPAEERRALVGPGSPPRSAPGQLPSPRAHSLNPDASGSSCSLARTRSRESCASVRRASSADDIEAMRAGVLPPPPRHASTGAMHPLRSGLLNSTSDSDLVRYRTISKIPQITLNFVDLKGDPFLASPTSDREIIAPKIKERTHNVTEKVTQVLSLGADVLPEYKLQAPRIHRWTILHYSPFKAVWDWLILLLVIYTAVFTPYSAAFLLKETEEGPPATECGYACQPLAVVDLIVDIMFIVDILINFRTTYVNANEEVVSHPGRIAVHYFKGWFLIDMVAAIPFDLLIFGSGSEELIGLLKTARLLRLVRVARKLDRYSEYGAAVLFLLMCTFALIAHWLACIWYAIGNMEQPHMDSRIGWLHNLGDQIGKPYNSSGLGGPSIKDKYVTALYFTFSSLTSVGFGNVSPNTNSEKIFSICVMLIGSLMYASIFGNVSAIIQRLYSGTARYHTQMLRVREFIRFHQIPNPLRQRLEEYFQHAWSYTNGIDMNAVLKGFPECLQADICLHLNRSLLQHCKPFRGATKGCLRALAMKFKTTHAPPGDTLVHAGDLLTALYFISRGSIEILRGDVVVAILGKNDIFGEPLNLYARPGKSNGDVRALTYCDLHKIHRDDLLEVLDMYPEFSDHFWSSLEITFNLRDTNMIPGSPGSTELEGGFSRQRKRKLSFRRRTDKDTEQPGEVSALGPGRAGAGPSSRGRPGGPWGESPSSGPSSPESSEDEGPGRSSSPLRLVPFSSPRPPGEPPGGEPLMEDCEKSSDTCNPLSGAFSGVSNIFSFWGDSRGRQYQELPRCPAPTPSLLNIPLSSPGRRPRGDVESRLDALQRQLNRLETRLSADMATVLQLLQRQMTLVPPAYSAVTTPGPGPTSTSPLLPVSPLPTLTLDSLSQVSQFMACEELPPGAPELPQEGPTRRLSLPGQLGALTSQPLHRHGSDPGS

Structure (SMILES) | hERG current change (%, negative = inhibition) at 1uM [%]
Cc1ccn2cc(CCNC(=O)C3CCCCC3)nc2c1 | -2.83
O=c1[nH]c(Cn2nnc(-c3ccccc3)n2)nc2scc(-c3ccccc3)c12 | 13.1
CN1C(=O)C(=Cc2cn(CC#N)c3ccccc23)C(=O)N(C)C1=O | 16.6
Cc1ccc(S(=O)(=O)N(C)c2ccc(OC(=O)c3ccc(N4CCCC4=O)cc3)cc2)cc1 | 12.2
CCN1CCN(Cc2cc3c(cc2[N+](=O)[O-])OCO3)CC1 | 7.07
O=C1CSC(c2cccnc2)N1C1CCCCC1 (stereo not shown) | 1.55
CCN(CC)Cc1nc2c(c(=O)[nH]1)C(CC)(CC)Cc1ccccc1-2 | 6.15
COc1ccc(-c2c(-c3ccc(OC)c(C)c3O)n[nH]c2C)cc1 | 18.3
CCOC(=O)c1sc(NC(=O)c2ccc(=O)[nH]c2)nc1C | 8.54
FC(F)(F)c1cc(-c2cccs2)nc2cc(-c3cccs3)nn12 | 15.5
CCN(c1ccccc1)S(=O)(=O)c1ccc(Cl)c(NC(=O)COC(=O)c2ccc(O)cc2)c1 | 17.8
O=C(c1cc(COc2ccc(F)cc2Cl)on1)N1CCSCC1 | 7.92
Cc1ccc(C)c(N2CCN(S(=O)(=O)c3c(C)noc3C)CC2)c1 | 10.1
Cc1csc(-c2cnn(-c3ccccc3)c2NC(=O)c2cccc(C(F)(F)F)c2)n1 | 20
CCOC(=O)c1cnc2ccc(OCC)cc2c1N1CCN(C)CC1.Cl | -15.6
CCOC(=O)c1ccc(N=c2sc(C(=O)OC)cc(=O)n2Cc2ccco2)cc1 | 17.7
COc1ccccc1-c1c(C)oc2cc(OC(=O)c3ccco3)ccc2c1=O | 17.6
O=C(COc1cccc2ccccc12)NNC(=O)C1CCCO1 (stereo not shown) | 1.95
CCO[C@@H]1OC(C(=O)NCc2ccccc2)=C[C@H](C2CC2)[C@H]1CCCO | 2.52
CC(=O)Oc1ccc2c(=O)c(-c3ccccc3)coc2c1 | 3.24
Cc1ccc2nc(SCC(=O)Nc3cc(C)on3)[nH]c2c1 | -2.32
O=C(NC(=S)NCC1CCCO1)c1ccc(Br)o1 (stereo not shown) | 7.95
COc1ccc(-c2cc(C)no2)cc1S(=O)(=O)N(C)c1ccc(C)cc1 | 4.37
Cc1noc(C)c1-c1nnc(-c2ccc(OC(F)(F)F)cc2)o1 | 4.04
NC(=O)c1cccc(-c2noc(-c3ccccc3F)n2)c1 | 2.7
